# Results taken from the supplement of paper PMC11876631.
# ± gives the standard deviation of the averaged measurements. Laboratory Escherichia coli strains with one amino-acid change in an essential protein, pooled on minimal glucose agar with carbenicillin or gentamicin at twice the control MIC (plus kanamycin and chloramphenicol for the plasmids), 48 h. Fold change of barcode share against drug-free plates; higher = less susceptible. Active = above 20 in both replicates (the paper's putatively resistant). '<' = one read or none on drug, '>' = one read or none on a drug-free plate. Shares are relative, so most strains fall below 1 when a few take over. Listed are strains with at least 15 reads on both drug-free plates, and hits; most hits rest on fewer reference reads. Replicate rank correlation about 0.5. Edits are read from barcodes.
# B1: pdxA; a variant is named by its letters at X, in order (parent)
# chain: MVKTQRVVITPGEPAGIGPDLXVQLAQREWPVEXXXCADATLLTNRAAMLGLPLTLRPYSPNSPAQPQTAGTLTLLPVALRAPVTAGQLAVENGHYVVETXARACDGCLNGEFAALITGPVHKGVINDAGIPFTGHTEFFEERSQAKKVVMXLATEELRVALATTHLPLRDIADAITPALLHEVIAILHHDLRTKFGIAEPRILVCGLNPHAGEGGHMGTEEIDTIIPVLNELRAQGMKLNGPLPADTLFQPKYLDNADAVLAMYHDQGLPVLKYQGFGRGVNITLGLPFIRTSVDHGTALELAGRGKADVGSFITALNLAIKMIVNTQ
# B2: serS; numbered along this chain (parent)
# chain: MLDPNLLRNEPDAVAEKLARRGFKLDVDKLGALEERRKVLQVKTENLQAERNSRSKSIGQAKARGEDIEPLRLEVNKLGEELDAAKAELDALQAEIRDIALTIPNLPADEVPVGKDENDNVEVSRWGTPREFDFEVRDHVTLGEMHSGLDFAAAVKLTGSRFVVMKGQIARMHRALSQFMLDLHTEQHGYSENYVPYLVNQDTLYGTGQLPKFAGDLFHTRPLEEEADTSNYALIPTAEVPLTNLVRGEIIDEDDLPIKMTAHTPCFRSEAGSYGRDTRGLIRMHQFDKVEMVQIVRPEDSMAALEEMTGHAEKVLQLLGLPYRKIILCTGDMGFGACKTYDLEVWIPAQNTYREISSCSNVWDFQARRMQARCRSKSDKKTRLVHTLNGSGLAVGRTLVAVMENYQQADGRIEVPEVLRPYMNGLEYIG
# B3: pabA; numbered along this chain (parent)
# chain: MILLIDNYDSFTWNLYQYFCELGADVLVKRNDALTLADIDALKPQKIVISPGPCTPDEAGISLDVIRHYAGRLPILGVCLGHQAMAQAFGGKVVRAAKVMHGKTSPITHNGEGVFRGLANPLTVTRYHSLVVEPDSLPACFDVTAWSETREIMGIRHRQWDLEGVQFHPESILSEQGHQLLANFLHR
# Variants of: B1
# Assay: barcode share on antibiotic plates over drug-free plates; higher = less susceptible
# Details: with Escherichia coli (laboratory strain); antibiotic: carbenicillin; 2× MIC (3.1 µg/mL)
# Protocol: (§1)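 A pool of E. coli strains, each edited to carry one amino-acid change in an essential protein, was grown for 48 h on minimal glucose agar with or without antibiotic; strain barcodes were sequenced; mean of two replicates.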
row,Variant,fold change of barcode share
1,VLQVLM,0.59 ± 0.23
2,VLVALM,0.508 ± 0.14

# Same assay, conditions: with Escherichia coli (laboratory strain); antibiotic: gentamicin; 2× MIC (MIC 0.45 µg/mL)
row,Variant,fold change of barcode share
1,VLQVLM,0.0126 ± 0.0088
2,VLVALM,0.00466 ± 0.0017

# Variants of: B2
# Assay: as above
# Details: with Escherichia coli (laboratory strain); antibiotic: carbenicillin; 2× MIC (3.1 µg/mL)
# Protocol: as §1
row,Variant,fold change of barcode share
1,M165Q,0.408 ± 0.26
2,M165A,0.246 ± 0.11
3,L318Q,0.748 ± 0.45
4,L318D,0.236 ± 0.087
5,L318W,0.323 ± 0.11
6,L318A,0.257 ± 0.039
7,L318P,0.614 ± 0.2
8,L181Q,0.283 ± 0.047
9,L319Q,1.83 ± 0.58
10,L319A,0.361 ± 0.12
11,V164A,0.664 ± 0.11
12,V164Q,0.351 ± 0.16
13,I282W,0.4015 ± 0.0022
14,W346A,0.301 ± 0.056
15,W346Q,0.472 ± 0.071
16,I235A,0.493 ± 0.035
17,V385P,0.329 ± 0.013
18,V385A,0.143 ± 0.05
19,V385W,0.414 ± 0.4
20,V385Q,0.627 ± 0.34

# Same assay, conditions: with Escherichia coli (laboratory strain); antibiotic: gentamicin; 2× MIC (MIC 0.45 µg/mL)
row,Variant,fold change of barcode share
1,M165Q,< 0.00462
2,M165A,< 0.00357
3,L318Q,< 0.0138
4,L318D,0.015 ± 0.0073
5,L318W,< 0.00975
6,L318A,< 0.00781
7,L318P,< 0.0127
8,L181Q,0.694 ± 0.97
9,L319Q,< 0.0132
10,L319A,0.0253 ± 0.026
11,V164A,0.0038 ± 0.0022
12,V164Q,0.27 ± 0.37
13,I235A,0.0064 ± 0.0019
14,V385P,< 0.00993
15,V385A,< 0.0146

# Variants of: B3
# Assay: as above
# Details: with Escherichia coli (laboratory strain); antibiotic: carbenicillin; 2× MIC (3.1 µg/mL)
# Protocol: as §1
row,Variant,fold change of barcode share
1,V143Q,2.37 ± 0.27
2,V143A,0.9 ± 0.038
3,V143W,1.05 ± 0.11
4,V143P,1.097 ± 0.0027
5,V143D,0.945 ± 0.15
6,F141D,1.81 ± 0.024
7,F141P,1.98 ± 0.17
8,F141A,1.101 ± 0.0021
9,F141Q,1.56 ± 0.06
10,F141W,0.943 ± 0.04
11,L4A,1.04 ± 0.26
12,L4W,0.856 ± 0.23
13,L4P,0.64 ± 0.025
14,L4Q,0.494 ± 0.14
15,L181D,1.16 ± 0.065
16,L181P,0.719 ± 0.15
17,L181A,0.31 ± 0.071
18,L118D,1.57 ± 0.83
19,L118P,1.77 ± 0.8

row,Variant,fold change of barcode share
1,L118W,0.802 ± 0.37
2,L118Q,0.75 ± 0.47
3,L118A,3.22 ± 1.3
4,L76D,0.67 ± 0.33
5,L76Q,0.567 ± 0.048
6,L76A,0.552 ± 0.096
7,L76W,0.58 ± 0.2
8,L76P,0.574 ± 0.077
9,F115Q,0.763 ± 0.051
10,F115W,0.554 ± 0.097
11,F115D,1.14 ± 0.43
12,F115A,0.816 ± 0.15
13,F115P,0.86 ± 0.33
14,I5P,0.866 ± 0.16
15,I5Q,1.22 ± 0.6
16,I5D,1.2 ± 1.1
17,I5A,0.543 ± 0.11
18,I5W,0.418 ± 0.11

# Same assay, conditions: with Escherichia coli (laboratory strain); antibiotic: gentamicin; 2× MIC (MIC 0.45 µg/mL)
row,Variant,fold change of barcode share
1,V143Q,0.0181 ± 0.00098
2,V143A,0.0198 ± 0.0035
3,V143W,0.0194 ± 0.00066
4,V143P,0.0158 ± 0.0035
5,V143D,0.0189 ± 0.0023
6,F141D,0.036 ± 0.0055
7,F141P,0.0324 ± 0.0044
8,F141A,0.0358 ± 0.0054
9,F141Q,0.071 ± 0.069
10,F141W,0.0211 ± 0.00036
11,L4A,0.0267 ± 0.026
12,L4W,0.0382 ± 0.015
13,L4D,< 0.0234
14,L4P,< 0.0115
15,L4Q,0.0154 ± 0.011
16,L181D,0.0305 ± 0.033
17,L181P,0.0251 ± 0.0075
18,L181A,0.00562 ± 0.0014
19,L118D,< 0.0146

row,Variant,fold change of barcode share
1,L118P,0.0159 ± 0.0059
2,L118W,< 0.0163
3,L118Q,< 0.00595
4,L118A,< 0.00692
5,L76D,0.0217 ± 0.011
6,L76Q,0.00832 ± 0.0074
7,L76A,0.0189 ± 0.00029
8,L76W,0.0175 ± 0.014
9,L76P,0.0169 ± 0.0088
10,F115Q,0.0178 ± 0.0086
11,F115W,0.0061 ± 0.00045
12,F115D,0.0238 ± 0.015
13,F115A,0.0207 ± 0.0078
14,F115P,0.0249 ± 0.0047
15,I5P,0.0391 ± 0.018
16,I5Q,0.0306 ± 0.012
17,I5A,0.0241 ± 0.022
18,I5W,0.0266 ± 0.025
